Data: the supplement of paper PMC3334620
The full ranking holds about 33,000 sequences; the median of “E-score (-0.5 to 0.5)” is about -0.035, and the highest 2% start at about 0.35. The list shows a part of the results.

Target: T1, Pdr3 (UniProt P33200)
T1 sequence: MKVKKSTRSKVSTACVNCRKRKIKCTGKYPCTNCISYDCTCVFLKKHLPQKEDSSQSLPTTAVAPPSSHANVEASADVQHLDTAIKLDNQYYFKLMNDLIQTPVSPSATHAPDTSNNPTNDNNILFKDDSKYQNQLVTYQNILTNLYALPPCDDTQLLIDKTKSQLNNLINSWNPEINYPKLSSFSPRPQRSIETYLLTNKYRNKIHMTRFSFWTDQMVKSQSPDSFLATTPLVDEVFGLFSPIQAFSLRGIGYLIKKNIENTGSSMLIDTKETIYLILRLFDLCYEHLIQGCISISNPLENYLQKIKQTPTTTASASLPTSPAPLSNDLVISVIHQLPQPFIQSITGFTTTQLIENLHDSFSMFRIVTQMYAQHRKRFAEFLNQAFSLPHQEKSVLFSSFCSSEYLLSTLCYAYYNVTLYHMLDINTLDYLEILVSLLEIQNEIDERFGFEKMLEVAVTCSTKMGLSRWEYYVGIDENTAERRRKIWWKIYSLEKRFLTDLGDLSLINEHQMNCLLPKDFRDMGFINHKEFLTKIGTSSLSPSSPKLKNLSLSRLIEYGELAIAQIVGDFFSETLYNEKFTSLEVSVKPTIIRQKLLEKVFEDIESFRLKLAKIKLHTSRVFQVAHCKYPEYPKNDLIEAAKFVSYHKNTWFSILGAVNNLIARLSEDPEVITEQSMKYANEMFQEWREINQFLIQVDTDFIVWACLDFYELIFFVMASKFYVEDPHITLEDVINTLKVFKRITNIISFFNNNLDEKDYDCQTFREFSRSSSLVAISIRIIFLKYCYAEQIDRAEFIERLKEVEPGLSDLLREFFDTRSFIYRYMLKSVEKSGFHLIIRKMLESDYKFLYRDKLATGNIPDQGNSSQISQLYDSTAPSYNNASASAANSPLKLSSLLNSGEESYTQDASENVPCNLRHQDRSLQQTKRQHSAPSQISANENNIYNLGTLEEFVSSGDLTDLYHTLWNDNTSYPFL
Test: PBM E-score (8-mer binding enrichment) (E-score (-0.5 to 0.5)); higher = stronger / more preferred TF binding; most listed sequences are background and not binding sites
Conditions: protein concentration: 200 nM; construct: GST-full length
Description: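 Universal 'all 10-mer' protein binding microarrays (Agilent AMADID 015681) probed with GST-tagged S. cerevisiae TFs (full-length or DBD) made by in vitro transcription/translation (PURExpress), about 100-200 nM. Bound TF was detected with fluorescent anti-GST. Each ungapped 8-mer (which stands for itself and its reverse complement) is scored by the PBM enrichment score (E-score), a modified Wilcoxon-Mann-Whitney statistic from -0.5 to +0.5, computed with the Universal PBM Analysis Suite. Scale: above 0.35 generally sequence-specific binding.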

Sequence | PBM E-score
CCACTGGC | 0.0313
GCAAATTA | 0.0295
CGGCGAGC | 0.235
GCGATAAA | 0.00239
ACTGGGAG | -0.0493
AGCGGGGG | -0.158
CAGGCGAA | -0.225
AATAGTAA | -0.0428
AAGTTGCC | 0.22
ATGGCCCG | 0.226
AAGGCTCA | -0.135
AGGGGTCA | -0.117
CATTCGTA | -0.19
TACTCTAA | -0.129
ACATCATG | 0.00695
GCTGACAC | -0.0583
CGCTTCAA | -0.042
CCTTTCGA | -0.0541
GCGCTTTA | 0.0174
AGTTCTTC | 0.0309
ACTACACG | -0.0428
ATCTTTTG | -0.0527
AGTTACTA | -0.188
CGATCAAG | -0.0706
GACTAGGA | -0.205

Sequence | PBM E-score
CTGGCCTA | -0.119
GAGCAACA | -0.1
CACGGCTA | 0.171
TCGGACCA | 0.292
CTATGACC | -0.117
AACTATCG | -0.0648
GCGAGATA | 0.105
ACGAGAGC | -0.0921
ACTAGCTA | 0.0117
AGGGCTAA | -0.187
CTAGTAAA | 0.11
ACAGGCGA | -0.114
CGACTGCC | -0.0106
ATTAAACG | 0.0486
ACAGCTCG | -0.0493
GACCTTCA | -0.00701
AAGGACGT | -0.142
TATGGGGA | 0.144
ACATGCCG | 0.289
TAGCGCTA | -0.0551
ATCGGTAC | 0.101
ATCATAGA | 0.0765
CTATCGTC | -0.201
CTGGCTTC | -0.202
ACGAAAAC | 0.0879

Sequence | PBM E-score
AAAGTCGT | -0.204
AAGCGGCT | 0.101
ATCCCAAC | -0.13
CAAAACTG | -0.0643
CCTTTGAC | -0.144
CTCTTGGC | -0.178
CGCGTCAC | -0.0401
ATTTCAGG | 0.0853
GCCATTGA | -0.0156
CCAACTTA | 0.0261
GAAGCTGC | -0.0188
ATGTTGGC | 0.0996
AAGTGACC | -0.0704
CGAAGGCA | -0.164
AGAATGCG | 0.0628
AGCAGCCG | 0.118
TCAGCCAA | -0.184
ATCTCGCA | -0.0558
AAGACTAA | -0.101
ATGTCACA | 0.0202
TGATGGAA | -0.0643
AATGTGAG | -0.199
GTTTAAAA | -0.0898
CTAGCGTA | -0.128
AGACTAGC | -0.389

Sequence | PBM E-score
AAGTTGCT | -0.0641
GTACCTAC | -0.178
ACCTGTTA | -0.261
CTCACCGA | 0.0691
ACTTTTGC | -0.0639
GGACACTA | 0.0015
AGTATCGA | 0.142
ACACCCAA | 0.00439
AGGCATTG | -0.0729
CGACAGCG | 0.139
TACGAATA | -0.189
ACAGGACA | 0.109
CGCACTGA | 0.00147
ACCCGCCG | 0.388
GCTAAGGA | -0.244
AACTTCTG | -0.00451
CCGCGTAC | 0.108
ACCGACGC | -0.117
CCAAGGGA | -0.252
CACGGCGA | 0.124
CCTTCACA | -0.189
CTGACGGA | 0.274
ACACCAAG | -0.096
AATCGAGC | 0.0969
GGTGTTCA | -0.103

Sequence | PBM E-score
AGCAGCAT | -0.0468
CGAGCTGA | 0.143
AGGTGACC | -0.0776
ACTACTCC | 0.244
GATGTATA | 0.0147
TCCTGGAA | -0.0272
CCCACACC | -0.0614
GCCGCAAA | 0.191
ACCCTAAA | -0.0121
TATTAGAA | 0.0715
AGGAAAAA | -0.157
CCCATGGG | 0.269
GTATACTA | -0.0867
ACCATGGG | -0.0796
GCAGGTAC | -0.104
ATGCTACC | 0.126
CGCTACAG | -0.122
AAAGCGAT | -0.0214
GGAAAAAA | 0.239
CAAGACGC | 0.00531
ATTCGATA | -0.105
GAGAAAAA | 0.176
CACCAAGG | -0.143
TCCGGTAA | 0.307
CGTAATGC | 0.00552

Sequence | PBM E-score
AATACCTA | -0.112
TCAAGAAA | 0.00042
AGAAGCAT | -0.105
AAGGTTCT | -0.0466
CCTGGTTC | 0.0601
CTATGTCC | 0.0411
AAGAAAAC | -0.0526
ATATCGAA | 0.139
ATACGGAC | 0.239
ACGATCTC | 0.0299
CAGCGGGA | 0.24
AGAAAATC | -0.0854
ACGATTTC | 0.051
AGATCGAT | -0.0103
ACACACCG | 0.11
AGTCTCTG | -0.135
ATCAAGTC | -0.158
ACCCACAG | -0.278
CGCGAATA | 0.15
CAGAAATC | -0.108
CAGACGTC | -0.23
CCGTGAAC | 0.234
CGATTTTA | -0.107
AAGACCAG | -0.0462
AACTACGC | 0.0535

Sequence | PBM E-score
GTCCACAC | -0.00599
GATATATC | 0.199
ACTGAGTA | -0.219
CTGGAATA | 0.08
AACAGGCA | -0.182
GTCACCCA | -0.0756
CTTACACA | -0.285
CGTTTAGA | -0.0405
GAGCGCCA | 0.0542
GTAGCAAC | -0.0159
CACGTTGG | -0.3
ACGGCGCG | 0.272
ACTCCATA | -0.0901
CGTCGACC | 0.0668
ATAGCCGC | 0.14
CACCGCAG | 0.0596
ACAGCAAA | -0.0725
CGTGGAAA | 0.243
AGAGCATA | -0.0889
CGCAGCAC | -0.036
AATATGGG | -0.0889
CTTGCTCA | -0.164
